This sample is rich in variants without activity.
B1: TPR 5TU (parent)
chain: GGAUCUUCUCGAUCUAACAAAAAAGACAAAUCUGCCACAAAGCUUGAGAGCAUCUUCGGAUGCAGAGGCGGCAGCCUUCGGUGGCGCGAUAGCGCCAACGUUCUCAACUAUGACACGCAAAACGCGUGCUCCGUUGAAUGGAGUUUAUCAUG

Variants of: B1
Assay: polymerase ribozyme fitness, log enrichment relative to wild type (log ratio); higher = more active; in vitro selection for triplet polymerase activity
In short: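 A heterodimeric triplet polymerase ribozyme had each of its subunits mutagenized by PCR into a library, which was transcribed. One round of in vitro selection, done in triplicate, annealed each library with a biotinylated primer, its partner subunit and triplets, then incubated it frozen at −7 °C before gel excision of extended constructs, streptavidin-bead capture and RT-PCR. Fitness is the logarithm of genotype enrichment relative to wild-type enrichment, based on Illumina sequencing of inputs and outputs and inverse-variance-weighted replicate averages. A base-2 logarithm is used, and genotypes were kept only with ≥10 input reads and ≥1 read per output.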

Row | Variant | polymerase ribozyme fitness (log ratio)
1 | GGAUCUUCUCGAUGUAACAAAAAAGACAAUUCUGCCACAAAGCUUGAGGGCAUCUUUGGCUGCAGAGGCGGCAGCCUUCGGUGGCGCGAUAUCGCCAACGUUCUCAACUAUGACACGCAAAACGCGUGCUCCGUUGAAUGGAGUUUAUCAUG [C14G A30U A49G C57U A60C G92U] | ≤ -4.2
2 | GGAUCUUCUCGAUGUAACAAAAAAGACAAAUCUGCCGCAAAGCUUGUGAGCAUCUUCGGAUGAAGAGGCGGCAGCCUUCGGUGUCGCGAUAGCGCCAACGUUCUCAACUAUGACACGCAAAACGCGUGCUCCGUUGAAUGGCGUUUAUCAAG [C14G A37G A47U C63A G84U A142C U151A] | ≤ -4.2
3 | GGAUCUUCUCGAUGUAACAAAAAAGACAAAUCUGCCUCAAAGCUUGAGAGCAUCUUCGGAUGCAGAGGCGGCAGCCUUCGGUGGCUCGUUAGCGCCAACGUUCUCAACUAUGACACGCUAAACGCGUGCUCGGUUGAAUGGAGUUUAUCAUG [C14G A37U G86U A89U A119U C132G] | ≤ -4.2
4 | GGAUCUUCUCGAUGUAACAAAAAAGACAAAUCUGCCACCAAGCUUGAGAGCAUGUUCGGAUGCAGAGGCGUCAGCCUUGGGUGGCGCGAUAGCGCCAACGUUCUCAACUAUGACACGCAAAACGCGUGCUCCGUUGAAUGGAGUUUAUCAUG [C14G A39C C54G G71U C79G] | ≤ -4.2
5 | GGAUCUUCUCGAUGUAACAAAAAAGACAAAUCUGCCACGAAGCUUGAGUGCAUCUACGGAUGCAGAGGCGGCAGCCUUCGUUGGCGCGAUAGCGCCAACGUUCUCAACUAUGACACGCAAAACGCGUGCUCCGUUGAAUGGAGUUUAUCAUG [C14G A39G A49U U56A G81U] | ≤ -4.2
6 | GGAUCUUCUCGAUGUAACAAAAAAGACAAAUCUGCCACGAAGCUUGAGAGCAUCUUCGGAUGCAGAGGGGGCAGCCUUCGGUGGCGCGAUAGCGCCAACGUUCUCAACUAUGACACGCAAAACGCGUGCUCCGUUGAAUGGAGUUUAUGAUG [C14G A39G C69G C149G] | ≤ -4.2
7 | GGAUCUUCUCGAUGUAACAAAAAAGACAAAUCUGCCACGAAGCUUGAUAGCAUCUUUGGAUGCAGAGGCGCCAGCCUUCGGUGGCGCGAUAACGCCAACGUUCUCAACUAUGACACGCAAAACAUGUGCUCCGUUGAAUGGAGUUUAUCCUG [C14G A39G G48U C57U G71C G92A G124A C125U A150C] | ≤ -4.2
8 | GGAUCUUCUCGAUGUAACAAAAAAGACAAAUCUGCCACUAAGCUUGAGAGCAUCUUCGGAUGCAGAGGCGGCAGCCUUCGGUGGCGCGUUAGCGCCAACGUUCUCAACUAUGACACGCAAAACGUGUGCUCCGUUGAAUAGAGAUUAUCAUG [C14G A39U A89U C125U G140A U144A] | ≤ -4.2
9 | GGAUCUUCUCGAUGUAACAAAAAAGACAAAUCUGCCACUAAGCUUGAGAGCAUCUUGGGAUGCAGAGGCGGCAGCCUUCGGUGGCGCGAUAGCGCCAACGUUCUCAACUAUGACACGCAAAACGCGUGCUCCGUUGAAUGGAGUUUAUCAUG [C14G A39U C57G] | -4.06
10 | GGAUCUUCUCGAUGUAACAAAAAAGACAAAUCUGCCACAUAGCUUGAGAGCAUCUUCGGAUGCAGAGGCAGCAGCCUUCGGUGGCGCGAGAGCGCCAACGUUCUCAACUAUGACACGCACAACGGGUGGUCCGUUGCAUGGAGUUUAUCAUG [C14G A40U G70A U90G A120C C125G C129G A137C] | ≤ -4.2
11 | GGAUCUUCUCGAUGUAACAAAAAAGACAAAUCUGCCACAAUGCUUGAGAGCAUCUUCGGAUGCAGAGGCGGCAGCCUUCGGUGGCGCGAUAGCGCCAACGUUCUCAACUAUGACACGCCAAACGCGUGCUCGGUUGAAUGGAGUUUAUCAUG [C14G A41U A119C C132G] | ≤ -4.2
12 | GGAUCUUCUCGAUGUAACAAAAAAGACAAAUCUGCCACAAAGCUUGCGAGCAUCUUCGGAUGCAGAGGCGGCAGCCUUCGGUGGCGCGAUAGCGCCAACGUUCUCAACUAUGACACGCAAAACGCGUGCUCCGUUGAAUGGAGUUUAUCAUG [C14G A47C] | -2.35
13 | GGAUCUUCUCGAUGUAACAAAAAAGACAAAUCUGCCACAAAGCUUGCGAGCAUGUACGGAUGCAGAGGCGGCAGCCUUCGGUGGCGCGAUAGAGCCAACGUUCUCAAUUAUGACACGCAAAACUCGUACUCCGUUGAAUGGAGUUUAUCAUG [C14G A47C C54G U56A C93A C108U G124U G128A] | ≤ -4.2
14 | GGAUCUUCUCGAUGUAACAAAAAAGACAAAUCUGCCACAAAGCUUGAGUGCAUCUUGGGAUGCAGAGGCGGCAGCCGUCGGUGGCGCGAUAGCGCCAACGUUCUCAACUAUGACACGCAAAACGCGUGCUCCGUUGAAUGGAGUUUAUCAUG [C14G A49U C57G U77G] | ≤ -4.2
15 | GGAUCUUCUCGAUGUAACAAAAAAGACAAAUCUGCCACAAAGCUUGAGAGCCUCUUCGGGUGCAGAGGCGGCAGCCUUCGGUGGCGCGAUGGGGCCAACGUUCUCAACUAUGACACGCAGAACGCGUGCUCCGUUGUAUGGAGUUUAUCAUG [C14G A52C A60G A91G C93G A120G A137U] | ≤ -4.2
16 | GGAUCUUCUCGAUGUAACAAAAAAGACAAAUCUGCCACAAAGCUUGAGAGCCUAUUCGGAUGCAGAGGCGGCAGCCUUAGGUGGCGUGAUAGCGCCAACGUUCUCAGCUAGGACAAGUAAAACGCGUGCUCCGUUGAAAGGAGUUUAUCAUG [C14G A52C C54A C79A C87U A107G U111G C116A C118U U139A] | ≤ -4.2
17 | GGAUCUUCUCGAUGUAACAAAAAAGACAAAUCUGCCACAAAGCUUGAGAGCCUCUUCGGAUGCAGAGGCGGCAGCCUUCGGUGGCGCGAUAGCGCAAACGUUCUCAACUAUGACACGCAUAACGCGUGCUCCGUUGGAUGGAGUUUAUCAUG [C14G A52C C96A A120U A137G] | ≤ -4.2
18 | GGAUCUUCUCGAUGUAACAAAAAAGACAAAUCUGCCACAAAGCUUGAGAGCGUCUUCGGAUGCAGAGGCGGCAGCCUUCGGUGGCGCGAUAGCGCCAACGUUCUCAACUAUGACACGCAAAACGCGUGCUCCGUUGAAUGCAGUUUAUCAUG [C14G A52G G141C] | -3.34
19 | GGAUCUUCUCGAUGUAACAAAAAAGACAAAUCUGCCACAAAGCUUGAGAGCGUCUUCGGAUGCAGAGGCGGCAGCCUUCGGUGGCGCGAUAGCGCCAACGGUCUCAUCUAUGACACGCAAAACGCGUGCUCCGUUGAAUGGAGUUUAUCAUG [C14G A52G U101G A107U] | ≤ -4.2

Reference: the RNAGym collection of RNA variant scans (doi:10.1073/pnas.2313332121)
